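These data come from cells grown in 96-well plates and exposed to compound for 48 hours at five concentrations. At the GI50, growth is halved. TGI: concentration producing complete growth inhibition.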
Tested on: NCI-H322M lung
Assay: NCI tumour cell line growth inhibition, 48 h

SMILES | GI50 [µM] | TGI [µM]
CN(C)CCN(C)c1ccc2ncc(C#Cc3cncc(C(=O)Nc4ccc(CN5CCN(C)CC5)c(C(F)(F)F)c4)c3)n2n1 | 3.42 | 9.8
CC1=C[C@H]2O[C@@H]3C[C@H]4OC(=O)/C=C\C=C\[C@H]([C@@H](C)O)OCC/C(C)=C/C(=O)OC[C@@]2(CC1)[C@]4(C)[C@]31CO1 | 0.0164 | 0.0973

From PubChem BioAssay (NCI)
